Test results from article PMC11995724, “Antibiotic target discovery by integrated phenotypic and activity-based profiling of electrophilic fragments” (Cell chemical biology, 2025).
Among all 3,200 compounds or so, about 110 (3.4%) showed an effect of 50% or more. The list shows a part of the results.

What follows are molecules tested on T1, V. cholerae SAD30. Conditions: relative growth, OD600, LB; 25 µM; inhibitor.
T1 construct: SAD30
Design: species or system S. aureus MSSA476 (TSB) or V. cholerae SAD30 (LB); 384-well bacterial growth screen at 25 uM, OD600 relative to DMSO control

Row | SMILES | % of control remaining
1 | CC(Cl)C(=O)N1C2CCC1CC(O)(Cc1ccc(F)cc1F)C2 (stereo not drawn) [7-G18, 2-chloro-1-{3-[(2,4-difluorophenyl)methyl]-3-hydroxy-8-azabicyclo[3.2.1]octan-8-yl}propan-1-one] | 71.8982%
2 | O=C(CCl)c1ccc2c(c1)CCN(C(=O)C(F)(F)F)C2 [10-E09, 1-[6-(2-chloroacetyl)-1,2,3,4-tetrahydroisoquinolin-2-yl]-2,2,2-trifluoroethan-1-one] | 98.6558%
3 | CC(Cc1ccc(Cl)s1)NC(=O)CCl (stereo not drawn) [5-N11, 2-chloro-N-[1-(5-chlorothiophen-2-yl)propan-2-yl]acetamide] | 97.5097%
4 | CC(C)c1cccc(C(C)C)c1NC(=O)CCl [5-G13, N-[2,6-bis(propan-2-yl)phenyl]-2-chloroacetamide] | 96.501%
5 | CC(Cl)C(=O)Nc1ccc2c(c1)OCCCO2 (stereo not drawn) [4-K10, 2-chloro-N-(3,4-dihydro-2H-1,5-benzodioxepin-7-yl)propanamide] | 96.6142%
6 | C=CC(=O)Nc1cc(S(=O)(=O)N2CCCCCC2)ccc1OC [1-A15, N-[5-(azepane-1-sulfonyl)-2-methoxyphenyl]prop-2-enamide] | 83.707%
7 | CNC(=O)c1ccn(C2CCCN(C(=O)CCl)C2)n1 (stereo not drawn) [5-I08, 1-[1-(2-chloroacetyl)piperidin-3-yl]-N-methyl-1H-pyrazole-3-carboxamide] | 95.156%
8 | COc1ccc(N(Cc2cccs2)C(=O)CCl)cc1 [5-O17, 2-chloro-N-(4-methoxyphenyl)-N-[(thiophen-2-yl)methyl]acetamide] | 96.501%
9 | CC(Cl)C(=O)N1CCN(c2nnnn2-c2ccccc2)CC1 (stereo not drawn) [7-I12, 2-chloro-1-[4-(1-phenyl-1H-1,2,3,4-tetrazol-5-yl)piperazin-1-yl]propan-1-one] | 70.1801%
10 | C=CC(=O)N1CCc2nn(C(C)C)c(=O)cc2C1 [3-B22, 6-(prop-2-enoyl)-2-(propan-2-yl)-2H,3H,5H,6H,7H,8H-pyrido[4,3-c]pyridazin-3-one] | 122.966%
11 | Cc1cc(C)c(NC(=O)C(C#N)=Cc2cc(F)ccc2F)c(C)c1 [8-A10, 2-cyano-3-(2,5-difluorophenyl)-N-(2,4,6-trimethylphenyl)prop-2-enamide] | 85.1801%
12 | N#CC(=Cc1cc(C#N)cs1)C(=O)NC(N)=O [8-F04, {2-cyano-2-[(4-cyanothiophen-2-yl)methylidene]acetyl}urea] | 78.7899%
13 | O=C(CCl)NCC(=O)Nc1nccs1 [5-G22, 2-chloro-N-{[(1,3-thiazol-2-yl)carbamoyl]methyl}acetamide] | 111.632%
14 | C=CC(=O)N1CC[C@H](Oc2ccc(F)cc2)C1 [2-A15, 1-[(3S)-3-(4-fluorophenoxy)pyrrolidin-1-yl]prop-2-en-1-one] | 86.1816%
15 | COc1ccc(C=C(C#N)C(=O)Nc2ccccc2C(=O)O)cc1O [9-A18, 2-[2-cyano-3-(3-hydroxy-4-methoxyphenyl)prop-2-enamido]benzoic acid] | 87.2196%
16 | Cc1ccsc1C=C(C#N)C(=O)NC1CCCCC1C (stereo not drawn) [8-G07, 2-cyano-N-(2-methylcyclohexyl)-3-(3-methylthiophen-2-yl)prop-2-enamide] | 56.0843%
17 | C=CC(=O)NCc1ccnc(N2CCSCC2)c1 [1-I14, N-{[2-(thiomorpholin-4-yl)pyridin-4-yl]methyl}prop-2-enamide] | 94.0209%
18 | C=CC(=O)NC(C)(Cn1cccn1)C(N)=O (stereo not drawn) [1-A20, N-{1-carbamoyl-1-[(1H-pyrazol-1-yl)methyl]ethyl}prop-2-enamide] | 86.6966%
19 | N#CC(=Cc1ccc(-c2ccccc2F)o1)C(=O)Nc1nccs1 [9-A08, 2-cyano-3-[5-(2-fluorophenyl)furan-2-yl]-N-(1,3-thiazol-2-yl)prop-2-enamide] | 85.0442%
20 | O=C(CCl)Nc1nc2c(s1)CCCC2 [5-G15, 2-chloro-N-(4,5,6,7-tetrahydro-1,3-benzothiazol-2-yl)acetamide] | 95.156%
21 | N#CC(=Cc1ccc2[nH]c(=O)[nH]c2c1)C(=O)NC1CCCC1 [9-E03, 2-cyano-N-cyclopentyl-3-(2-oxo-2,3-dihydro-1H-1,3-benzodiazol-5-yl)prop-2-enamide] | 99.3202%
22 | N#CC(=Cc1ccc(O)c([N+](=O)[O-])c1)C(=O)NCc1ccccc1 [8-O05, N-benzyl-2-cyano-3-(4-hydroxy-3-nitrophenyl)prop-2-enamide] | 79.1978%
23 | C=CC(=O)NCc1cccc(-n2cccn2)n1 [1-M14, N-{[6-(1H-pyrazol-1-yl)pyridin-2-yl]methyl}prop-2-enamide] | 88.3408%

Row | SMILES | % of control remaining
24 | C=CC(=O)Nc1cccc(C(=O)C(C)(C)C)c1 [2-I18, N-[3-(2,2-dimethylpropanoyl)phenyl]prop-2-enamide] | 90.8135%
25 | Cc1ccsc1CN(C(=O)CCl)C(C)C [7-P03, 2-chloro-N-[(3-methylthiophen-2-yl)methyl]-N-(propan-2-yl)acetamide] | 97.0097%
26 | COc1ccc(NC(=O)C(C#N)=Cc2ccco2)cc1 [9-F19, 2-cyano-3-(furan-2-yl)-N-(4-methoxyphenyl)prop-2-enamide] | 83.6846%
27 | O=C(CCl)NC(c1ccc(F)c(C(F)(F)F)c1)C1CC1 (stereo not drawn) [7-B22, 2-chloro-N-{cyclopropyl[4-fluoro-3-(trifluoromethyl)phenyl]methyl}acetamide] | 84.7183%
28 | CC(Cl)C(=O)N1CCC(c2cc3ccccc3[nH]2)C1 (stereo not drawn) [7-O12, 2-chloro-1-[3-(1H-indol-2-yl)pyrrolidin-1-yl]propan-1-one] | 66.0829%
29 | C=CCNC(=O)C(C#N)=Cc1ccc(OC)c(O)c1 [8-E21, 2-cyano-3-(3-hydroxy-4-methoxyphenyl)-N-(prop-2-en-1-yl)prop-2-enamide] | 80.2855%
30 | N#Cc1c(NC(=O)CCl)oc(-c2cccs2)c1-c1cccs1 [6-I09, 2-chloro-N-[3-cyano-4,5-bis(thiophen-2-yl)furan-2-yl]acetamide] | 54.299%
31 | CCC(NC(=O)CCl)c1c(C)noc1C (stereo not drawn) [7-D03, 2-chloro-N-[1-(3,5-dimethyl-1,2-oxazol-4-yl)propyl]acetamide] | 98.0671%
32 | C=CC(=O)NC1CCN(c2ccc(Cl)c(Cl)c2)C1 (stereo not drawn) [1-C14, N-[1-(3,4-dichlorophenyl)pyrrolidin-3-yl]prop-2-enamide] | 65.1719%
33 | CN(Cc1ccc(-c2ccc(Cl)cc2)o1)C(=O)CCl [5-I13, 2-chloro-N-{[5-(4-chlorophenyl)furan-2-yl]methyl}-N-methylacetamide] | 79.3527%
34 | CC(Cl)C(=O)Nc1ccccc1Sc1ccccc1 (stereo not drawn) [6-H10, 2-chloro-N-[2-(phenylsulfanyl)phenyl]propanamide] | 56.4224%
35 | O=C(CCl)N1CCN(C(=O)c2cn(C3CC3)nn2)CC1 [5-D03, 2-chloro-1-[4-(1-cyclopropyl-1H-1,2,3-triazole-4-carbonyl)piperazin-1-yl]ethan-1-one] | 109.446%
36 | CC(Cl)C(=O)N1CCCC(n2ccc(C(F)(F)F)n2)C1 (stereo not drawn) [7-A08, 2-chloro-1-{3-[3-(trifluoromethyl)-1H-pyrazol-1-yl]piperidin-1-yl}propan-1-one] | 84.3218%
37 | O=C(CCl)Cc1ccc(F)cc1 [10-G15, 1-chloro-3-(4-fluorophenyl)propan-2-one] | 95.6945%
38 | CC(Cl)C(=O)N1C2CCC1CC(N(C)C(=O)c1ccccc1)C2 (stereo not drawn) [6-L14, N-[8-(2-chloropropanoyl)-8-azabicyclo[3.2.1]octan-3-yl]-N-methylbenzamide] | 87.6671%
39 | C=CC(=O)NCCNC(=O)c1cc2ccccc2[nH]1 [3-B21, N-{2-[(1H-indol-2-yl)formamido]ethyl}prop-2-enamide] | 112.557%
40 | C=CC(=O)NC(c1noc(O)n1)C(C)(C)C (stereo not drawn) [2-C14, N-[1-(5-hydroxy-1,2,4-oxadiazol-3-yl)-2,2-dimethylpropyl]prop-2-enamide] | 93.9014%
41 | CC(Cl)C(=O)C=C1N(C)c2ccccc2C1(C)C (stereo not drawn) [10-J22, 3-chloro-1-(1,3,3-trimethyl-2,3-dihydro-1H-indol-2-ylidene)butan-2-one] | 91.6423%
42 | CSc1ccccc1NC(=O)CN(C)C(=O)CCl [4-L03, 2-chloro-N-methyl-N-({[2-(methylsulfanyl)phenyl]carbamoyl}methyl)acetamide] | 116.282%
43 | N#CC(=Cc1ccc(Cl)cc1)C(=O)NCc1ccccc1 [9-G13, N-benzyl-3-(4-chlorophenyl)-2-cyanoprop-2-enamide] | 74.5751%
44 | Cc1cc(C(=O)CCl)c(C)n1-c1ccc(C(C)(C)C)cc1 [10-N20, 1-[1-(4-tert-butylphenyl)-2,5-dimethyl-1H-pyrrol-3-yl]-2-chloroethan-1-one] | 93.045%
45 | CC(Cl)C(=O)NCC1CCCCN1C(=O)C(F)(F)F (stereo not drawn) [7-K13, 2-chloro-N-{[1-(2,2,2-trifluoroacetyl)piperidin-2-yl]methyl}propanamide] | 77.9779%
